# Reference: paper PMC4336329 (PLoS ONE, 2015)
# Screen size: about 310,000 compounds; about 2,200 (0.71%) showed an effect of 50% or more. The effect is printed as a negative number. Some of the results follow.
# Molecular target: human ether-à-go-go-related gene (hERG) potassium channel (human, UniProt Q12809)
# Test: primary screen, population patch clamp on CHO cells stably expressing hERG
# Sequence of human ether-à-go-go-related gene (hERG) potassium channel (Q12809 whole entry, looked up): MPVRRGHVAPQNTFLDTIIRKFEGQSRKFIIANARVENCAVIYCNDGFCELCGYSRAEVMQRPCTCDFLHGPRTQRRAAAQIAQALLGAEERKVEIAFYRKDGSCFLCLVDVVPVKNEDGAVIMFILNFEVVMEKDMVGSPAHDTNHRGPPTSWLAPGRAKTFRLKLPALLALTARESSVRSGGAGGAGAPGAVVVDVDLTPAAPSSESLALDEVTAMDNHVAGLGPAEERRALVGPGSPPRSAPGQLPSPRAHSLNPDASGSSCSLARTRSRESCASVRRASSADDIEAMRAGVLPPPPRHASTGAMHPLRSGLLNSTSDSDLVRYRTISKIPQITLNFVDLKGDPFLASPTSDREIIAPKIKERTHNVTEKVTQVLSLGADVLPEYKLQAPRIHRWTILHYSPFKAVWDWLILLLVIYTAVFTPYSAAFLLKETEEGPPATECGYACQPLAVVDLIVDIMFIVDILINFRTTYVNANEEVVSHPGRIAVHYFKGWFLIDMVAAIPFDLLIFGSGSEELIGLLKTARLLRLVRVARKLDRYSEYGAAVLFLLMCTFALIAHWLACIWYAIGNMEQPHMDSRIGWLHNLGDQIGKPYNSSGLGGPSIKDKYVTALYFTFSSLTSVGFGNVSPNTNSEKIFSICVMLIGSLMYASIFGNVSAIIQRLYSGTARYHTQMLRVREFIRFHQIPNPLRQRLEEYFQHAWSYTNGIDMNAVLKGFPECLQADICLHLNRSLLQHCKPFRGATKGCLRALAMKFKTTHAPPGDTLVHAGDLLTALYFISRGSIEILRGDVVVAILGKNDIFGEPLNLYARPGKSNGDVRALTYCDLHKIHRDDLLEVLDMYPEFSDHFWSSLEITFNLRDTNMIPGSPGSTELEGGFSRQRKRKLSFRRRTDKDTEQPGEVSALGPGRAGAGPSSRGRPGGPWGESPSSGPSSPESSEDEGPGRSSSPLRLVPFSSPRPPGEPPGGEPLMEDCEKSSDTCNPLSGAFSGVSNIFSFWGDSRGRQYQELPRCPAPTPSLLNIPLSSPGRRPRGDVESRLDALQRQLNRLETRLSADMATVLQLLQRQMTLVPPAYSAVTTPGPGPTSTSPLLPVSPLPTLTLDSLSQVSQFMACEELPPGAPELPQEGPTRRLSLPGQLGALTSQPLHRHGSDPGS
row,SMILES,"hERG current change (%, negative = inhibition) at 1uM [%]"
1,Cc1cccc(NC(=O)c2ccc(Cl)c(S(=O)(=O)N3CCCCCC3)c2)n1,-5.26
2,COC(=O)Cc1nc(Nc2ccccc2)sc1C,13.8
3,O=C(c1c[nH]c2ccccc12)C(F)(F)F,12.2
4,CCSc1nnc2c(n1)OC=Nc1ccc(Br)cc1-2,4
5,CC1CC2c3cccc(C(=O)O)c3C(=O)N2c2ccc(Cl)cc21 (centres unmarked),5.28
6,CC(=O)NCCC(=O)Nc1ccc(C(N)=O)cc1,15.6
7,CC(C)CN1C(=O)c2ccc(C(=O)Nc3ccccn3)cc2C1=O,-0.242
8,CCOC(=O)c1sc2ncnc(NCC(c3cccs3)N(C)C)c2c1C (centres unmarked),8.18
9,COc1cccc(C(=O)NCCC(=O)NCc2cc(=O)n(C)c(=O)n2C)c1,15.7
10,O=C(C1=C[C@@H](C2CC2)C[C@@H](OCc2ccc(CO)cc2)O1)N1CCN(Cc2ccccc2)CC1,12.6
11,CC(=O)c1ccc(N2CCN(C(=O)c3ccc4nc[nH]c4c3)CC2)cc1,4.15
12,CCOC(=O)C1(CCOc2ccccc2)CCN(Cc2ccc(C)o2)CC1,-32.8
13,COc1cccc(N(CC(=O)NCC2CCCO2)C(=O)CCC(=O)Nc2nccs2)c1 (centres unmarked),18.9
14,C=CCn1c(-c2ccc(Cl)cc2)c[nH]c1=S,13.5
15,Cn1[nH]c(CSc2ccc(Cl)cc2)cc1=O,12.1
16,Cc1cccc(CNc2ncc(-c3cccc([N+](=O)[O-])c3)n2C)c1.O=C(O)C(=O)O,-18.3
17,COc1cccc(NC(=O)CN(C)S(=O)(=O)/C=C/c2ccccc2)c1,2.44
18,Cc1ccc(C(C)NC(=O)c2ccc3c(c2)OCO3)cc1C (centres unmarked),-7.59
19,CCn1c(=O)cc(N2CCN(Cc3ccccc3)CC2)[nH]c1=O,6.64
20,COc1ccc(-c2cc(C(=O)Nc3ccccc3F)on2)cc1,9.45
21,Br.C=CCn1c(=N)n(CC(=O)c2ccc(Br)s2)c2ccccc21,-3.44
22,Cn1c(-c2ccc(F)cc2)cnc1NCc1ccc(F)cc1,-4.84

row,SMILES,"hERG current change (%, negative = inhibition) at 1uM [%]"
1,O=C(CCN1CCN(CC(=O)Nc2ccccc2Cl)CC1)Nc1ccccc1F,-54
2,O=C(Nc1cccnc1)c1cnn2c(C(F)F)cc(C3CC3)nc12,-13.9
3,CCN(CC)CCN1C(=O)c2oc3ccc(F)cc3c(=O)c2C1c1ccncc1 (centres unmarked),6.34
4,COc1cc(OC)cc(N(C(=O)CNC(=O)c2cccs2)C(C(=O)NCC2CCCO2)c2ccccc2)c1 (centres unmarked),5.31
5,Cc1cccc(N/C=C(\[N+](=O)[O-])S(=O)(=O)c2ccccc2)c1,17.7
6,O=C(c1ccccn1)N(Cc1cccs1)C1(C(=O)NC2CCCCC2)CCCCC1,12.6
7,O=C1CCc2ccc(NC(=O)C3CC3)cc2N1,11
8,Cc1ccc(NC(=O)CCS(=O)(=O)c2cccc3nonc23)c(Br)c1,16
9,COc1ccc2cc(CCNC(=O)c3ccc4c(c3)OCO4)c(=O)[nH]c2c1,13.2
10,CC(C)n1nnnc1SCC(=O)c1ccc2c(c1)OCCO2,1.09
11,O=C(CC1c2ccccc2Oc2ccccc21)N1CCN(c2ccccn2)CC1,7.01
12,Cc1ccc(N2C(=NC(=O)c3ccccc3)SC3CS(=O)(=O)CC32)cc1 (centres unmarked),10.9
13,O=C(COC(=O)/C=C/c1ccco1)NC1CCCCC1,8.37
14,O=C(O)C1C2CC2CN1C(=O)c1ccc(Cl)cc1 (centres unmarked),10.5
15,Cl.c1ccc(C2NCc3ccccc3-n3cccc32)cc1 (centres unmarked),3.33
16,CN(Cc1ccccc1OCCO)CC1CCCN(CCc2ccc(Cl)cc2)C1 (centres unmarked),-15.8
17,C#CCOCCOCCOCCNc1nc(N2CCOCC2)nc(N2CCN(C(=O)Cn3cc(CC(C)O)nn3)CC2)n1 (centres unmarked),9.74
18,O=C(C1CCCN(S(=O)(=O)c2cccc3nonc23)C1)N1CCN(c2ccccc2Cl)CC1 (centres unmarked),14.3
19,CC(C)CC(=O)NC(NCC1CCCO1)C(Cl)(Cl)Cl (centres unmarked),4.25
20,Cc1ccc2c(c1)CCCN2C(=O)Nc1ccc2c(c1)OCO2,9.05
21,COc1cccc(C(N)=O)c1OC(=O)Cc1ccccc1F,8.18
22,COC(=O)c1c(NC(=O)Cc2ccccc2)sc2c1C(C(=O)OC)CC2 (centres unmarked),7.85

row,SMILES,"hERG current change (%, negative = inhibition) at 1uM [%]"
1,CSCCC(NS(=O)(=O)c1ccc(Cl)cc1)C(=O)OCc1cccc(Cl)c1 (centres unmarked),3.09
2,Cc1csc(NC(=O)CSc2ccc(-c3ccccc3)nn2)n1,-2.62
3,COc1ccc(Cl)cc1NC(=O)CN(C)C(=O)Cc1n[nH]c(=O)c2ccccc12,3.92
4,Cn1c(SCC(=O)N2CCc3ccccc32)nnc1C1CC1,17.9
5,Cc1ccc(N(CC(=O)NC(C)c2ccccc2)S(=O)(=O)c2cccs2)cc1 (centres unmarked),11.3
6,CCOC(=O)c1c(O)cc(C)cc1Nc1ccccc1,15.8
7,O=C(COc1ccccc1[N+](=O)[O-])N/N=C/c1ccncc1,10.1
8,CN1CCN(C(CNS(=O)(=O)c2ccc(F)cc2)c2cccnc2)CC1 (centres unmarked),6.68
9,CC12CCC(C(=O)N(CC(O)CN3CCN(Cc4ccccc4)CC3)C1=O)C2(C)C.Cl (centres unmarked),11.2
10,CCn1c(COc2ccccc2)nnc1SCC(=O)NCc1ccco1,7.83
11,Cc1ccc(NC(=O)C2CCCN(C(=O)c3ccc(Cl)cc3)C2)c(C)c1 (centres unmarked),-5.44
12,CCOc1ccc(N2C(=O)S/C(=C\c3ccc(O)c(OCC)c3)C2=O)cc1,11
13,O=C(COC(=O)c1ccc2c(c1Cl)C(=O)c1ccccc1C2=O)NC1CC1,11.9
14,CCN1CCN(c2ccc(NC(=O)c3cccnc3)cc2Cl)CC1,2.18
15,O=C(NNC1CC(=O)N(c2ccccc2)C1=O)c1cccnc1 (centres unmarked),16.4
16,CCCCCCCn1c(NC(=O)CC)nc2ccccc21,2.09
17,N#Cc1ccc(C23CC4(C2)[C@H](CN(Cc2ccc(-c5ccccc5)cc2)[C@@H]4c2ccccc2)C3c2ccc(C(F)(F)F)cc2)cc1 (some centres unmarked),12.9
18,Cc1onc(-c2ccccc2Cl)c1C(=O)Nc1nnc(-c2ccc(Br)cc2)s1,16.7
19,O=c1c2c(n3nnnc3n1-c1ccccc1)-c1ccccc1CC21CCCC1,10.2
20,Cc1cccc(N(CC(=O)N2CCc3ccccc3C2)S(C)(=O)=O)c1C,4.83
21,COC(=O)c1cc(NS(=O)(=O)c2ccc(NCc3cccnc3)c([N+](=O)[O-])c2)cc(C(=O)OC)c1,12.3
22,COc1cccc(CNC(=O)CCC2CCCN(C(=O)c3cccc(Cl)c3)C2)c1 (centres unmarked),4.9

row,SMILES,"hERG current change (%, negative = inhibition) at 1uM [%]"
1,CCC1=NN(C(=O)c2ccccc2Br)C(O)(c2ccc(Br)cc2)C1 (centres unmarked),10.5
2,C(=C\c1ccc(/C=C/c2ccccc2)nn1)/c1ccccc1,18.3
3,CCOc1ccc(S(=O)(=O)N2CCC(C(=O)N3CCc4ccccc4C3)CC2)cc1,8.58
4,COc1cccc(N(C(=O)C2COc3ccccc3O2)C(C(=O)NC2CCCCC2)c2ccc(O)cc2)c1 (centres unmarked),1.66
5,Cc1cccc(NC(=O)C(NS(=O)(=O)c2ccc3c(c2)CCC(=O)N3)c2ccccc2)n1 (centres unmarked),-12.6
6,CC(C)c1ccccc1-n1c(SCC(=O)N2CCN(c3ccccc3)CC2)nnc1-c1cccnc1,3.18
7,CCCN(C(=O)CSc1nc2cc(S(=O)(=O)N(CC)CC)ccc2o1)C1CCS(=O)(=O)C1 (centres unmarked),-1.88
8,COc1ccc(S(=O)(=O)N2CCCCCC2)cc1C(=O)N(C)CC(=O)Nc1ccccc1C(F)(F)F,9.11
9,c1ccc2nc(N3CCOCC3)c(N3CCOCC3)nc2c1,15.1
10,COC(=O)c1cc2nc(-c3ccc(OC)c(OC)c3)cc(C(F)(F)F)n2n1,12.2
11,Cc1ccc(NC(=O)O/N=C/c2ccc(N(C)C)cc2)cc1,12.5
12,Cc1ccc(S(=O)(=O)N2CCOC2CNC(=O)C(=O)NCCCc2ccccc2)cc1 (centres unmarked),5.36
13,Cl.O=C(Nc1cccc(C(F)(F)F)c1)c1cccnc1N1CCOCC1,17.1
14,N/C(=N\c1nc2ccccc2o1)NC(=O)c1ccc([N+](=O)[O-])cc1,-1.33
15,Cc1ccnc(NS(=O)(=O)c2ccc(NC(=O)C3CCCNC3=O)cc2)n1 (centres unmarked),3.36
16,CCCN1C(=O)/C(=c2\sc3nc(=O)c(Cc4ccc(C)cc4)nn3c2=O)c2ccccc21,13
17,O=C(Nc1ccc(N2CCOCC2)cc1)C1CC(=O)N(c2ccc(Cl)cc2)C1 (centres unmarked),12.7
18,CN(CC(=O)Nc1c(Cl)cccc1Cl)C(=O)c1ccncc1,17.4
19,CCC(CC)NC(=O)CSc1nnc(-c2ccc(OC)cc2)n1C(C)C,4.42
20,COc1ccc(N2CCN(C(=O)c3ccc4c(=O)n(CCc5ccc(OC)c(OC)c5)c(=O)[nH]c4c3)CC2)cc1,12.8
